The campaign covered roughly 44,000 compounds. About 340 (0.77%) were called active. About 5% were inconclusive and are not listed. Calls follow the shape of the dose curve; as a rule, active = well fitted inhibition curve with a large enough effect; inconclusive = small, poorly fitted or top-dose-only effect; inactive = flat fitted curve, though single readings scatter. The list shows a part of the results.
assay: Acumen qHTS Assay for Inhibitors of the mTORC1 Signaling Pathway in MEF (Tsc2-/-, p53-/-) Cells: Sytravon; conditions: phospho-rpS6 immunofluorescence/PI, 24 h; series mostly up to 38.3 µM; activity change, negative = inhibition: at the top concentration;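 also: plate controls were DMSO for no effect and rapamycin for full effect; nearly all actives have a fitted effect of over 50% in size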
Summary of the method: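 Immunofluorescence of rpS6 phosphorylation in Tsc2-/-, p53-/- MEFs after 24 h compound exposure, normalized to propidium iodide signal. Activity is expressed as % positive cells, thresholded with 7.5 nM rapamycin.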

Activity change, negative = inhibition, inactive:
Cc1ccc(C)c(N2CCN(CCCNC(=O)c3ccc4nc(N5CCCCC5)sc4c3)CC2)c1 0.128%
Cc1ccc(-c2nnc(Nc3ccccc3)c3ccccc23)cc1S(=O)(=O)NCc1nc2ccccc2[nH]1 -25.7%
COc1ccc(C(=O)N(c2ccc(OC)cc2)S(=O)(=O)c2ccc3c(c2)n(C)c(=O)n3C)cc1 5.32%
COc1ccccc1C(=O)Nc1cccc(C(=O)OCc2cc(=O)n3nc(C)sc3n2)c1 0%
Cc1c(Cl)cccc1NC(=O)Cn1nnc2sc3c(c2c1=O)CCCC3 0.0252%
O=C(c1cc2ccc3cccnc3c2[nH]1)N1CCN(c2ccc(Cl)cc2)CC1 2.18%
O=C(Nc1cccc(Cl)c1Cl)c1cc(S(=O)(=O)NCCc2ccccc2)ccc1F 9.48%
NC(=O)CSc1ncc2c(n1)-c1ccccc1N(Cc1ccc(Cl)cc1)S2(=O)=O 5.73%
O=C(CN1C(=O)C2(SCC(=O)N2c2ccccc2)c2ccccc21)NCc1ccccc1 (stereo unspecified) 1.51%
Cc1nn(CC(=O)Nc2cc(F)ccc2F)c(=O)c2cccn12 -16.6%
CC(C)(C)c1ccccc1NC(=O)CSc1nc(-c2cccs2)cc(C(F)(F)F)n1 -13.2%
Cc1cc(Nc2ccc(Cl)cc2C)nc(-n2nc(C)cc2C)n1 0%
CC(C)c1noc(-c2ccccc2OCC(=O)Nc2ccccc2[N+](=O)[O-])n1 -4.63%
O=C(NCc1ccc2c(c1)CCN2C(=O)c1ccc(F)cc1)c1ccco1 -2.71%
Cc1c(CNC2CCCCC2)c(C(=O)O)c(C)n1Cc1ccc(F)cc1 -4.48%
CCOc1ccc(C(=O)Nc2ccc(-n3nncc3-c3ccccc3)cc2)cc1OCC 6.7%
CCC(=O)Nc1ccc2nc3c(=O)n(C)c(=O)n(C)c3nc2c1 2.39%
CCC(NC(=O)Nc1cc(OC)ccc1OC)c1c(-n2cccc2)sc2c1CCN(CC)C2 (stereo unspecified) -3.85%
CCN(C(=O)c1cc2c(=O)n3cccc(C)c3nc2s1)c1ccc(C)c(C)c1 -26.2%
COc1cccc(CNC(=O)C2(c3cccs3)CCOCC2)c1 3.01%
Cc1oc2ccc(O)c(CN3CCN(C)CC3)c2c1C(=O)Nc1cccc(C(F)(F)F)c1 -7.3%
CCOC(=O)c1c(NC(=O)CSc2cn(CCNC(=O)c3ccccc3OC)c3ccccc23)sc2c1CCC2 -5.78%
CC(C)c1nc2n(n1)C1(CCCCC1)[C@@H]1CCCC[C@@H]1N2 0%
CCOc1ccc(-n2c(CC)nc3c(cnn3-c3ccc(Cl)cc3)c2=O)cc1 -6.83%
COc1ccc(-c2nc3c4ccccc4n(CC(=O)N4CCN(c5ccc(F)cc5)CC4)c(=O)n3n2)cc1 0.137%
Cc1cccc(Cn2c(C)c(CNC3CCCCCC3)c(C(=O)O)c2C)c1 -1.19%
